Laboratory results as given in publication PMC4336329 (PLoS ONE, 2015).
Screen size: about 310,000 compounds; about 14,000 (4.5%) showed an effect of 50% or more. The effect is printed as a negative number. The list shows a part of the results.

biological target: human ether-à-go-go-related gene (hERG) potassium channel (human, UniProt Q12809); experiment: primary screen, population patch clamp on CHO cells stably expressing hERG
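Further: peak tail current of the secondary pulse compared with the same well before compound.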

Chain of human ether-à-go-go-related gene (hERG) potassium channel (Q12809 whole entry, looked up): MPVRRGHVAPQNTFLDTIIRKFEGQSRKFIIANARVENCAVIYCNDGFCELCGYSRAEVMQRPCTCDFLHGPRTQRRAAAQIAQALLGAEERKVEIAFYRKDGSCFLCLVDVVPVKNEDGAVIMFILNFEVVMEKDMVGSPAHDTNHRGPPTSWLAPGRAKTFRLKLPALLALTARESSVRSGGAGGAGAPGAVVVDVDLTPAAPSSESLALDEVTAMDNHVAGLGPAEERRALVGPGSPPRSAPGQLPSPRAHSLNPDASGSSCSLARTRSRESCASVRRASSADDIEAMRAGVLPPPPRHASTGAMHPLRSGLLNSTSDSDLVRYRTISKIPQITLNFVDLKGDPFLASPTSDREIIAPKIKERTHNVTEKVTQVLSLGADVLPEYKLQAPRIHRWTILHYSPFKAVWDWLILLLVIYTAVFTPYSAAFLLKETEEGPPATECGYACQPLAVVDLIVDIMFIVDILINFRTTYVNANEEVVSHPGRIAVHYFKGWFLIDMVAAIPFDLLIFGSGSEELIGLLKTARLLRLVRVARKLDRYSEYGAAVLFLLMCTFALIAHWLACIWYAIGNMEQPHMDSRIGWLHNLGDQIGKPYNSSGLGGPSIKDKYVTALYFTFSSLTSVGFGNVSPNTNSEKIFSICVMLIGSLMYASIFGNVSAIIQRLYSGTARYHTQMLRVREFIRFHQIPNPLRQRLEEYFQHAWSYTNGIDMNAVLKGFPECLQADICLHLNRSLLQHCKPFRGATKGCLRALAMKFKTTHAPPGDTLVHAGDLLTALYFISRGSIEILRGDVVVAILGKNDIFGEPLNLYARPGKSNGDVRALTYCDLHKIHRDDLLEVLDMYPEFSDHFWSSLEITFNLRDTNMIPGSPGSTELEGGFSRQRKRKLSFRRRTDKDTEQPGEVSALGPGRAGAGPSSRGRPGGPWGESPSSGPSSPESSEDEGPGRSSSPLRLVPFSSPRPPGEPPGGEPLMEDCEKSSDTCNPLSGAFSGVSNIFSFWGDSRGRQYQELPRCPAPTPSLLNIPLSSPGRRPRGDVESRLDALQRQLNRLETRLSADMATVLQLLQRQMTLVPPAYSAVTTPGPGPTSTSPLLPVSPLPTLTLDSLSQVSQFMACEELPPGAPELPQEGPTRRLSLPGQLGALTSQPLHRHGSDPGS

Compared with `Cc1ccc(-c2nc(CS(=O)(=O)CC(=O)NC3CCC(C)CC3)c(C)o2)cc1` (stereo not drawn), `CCOc1ccc(N(CC(=O)NCC2CCCO2)S(=O)(=O)c2ccc(C)cc2)cc1` (stereo not drawn) is lower in “hERG current change (%, negative = inhibition) at 10uM” value: 1.25% for the first, -10.3% for the second.

Compared with `Cc1ccc(CC(=O)NCCC(=O)O)cc1`, `Cc1onc(-c2ccccc2Cl)c1C(=O)NCC(=O)O` is lower in “hERG current change (%, negative = inhibition) at 10uM” value: 16.9% for the first, -3.33% for the second.

Going from `O=C(CCNC(=O)c1ccc([N+](=O)[O-])cc1)Nc1ccccc1N1CCCC1` to `O=C(NC(=S)Nc1cc([N+](=O)[O-])ccc1Cl)c1ccccc1`, the “hERG current change (%, negative = inhibition) at 10uM” value rises from -34.6% to -0.0499%.

First: Cc1cccc(NC(=O)CSCC(=O)Nc2ccc(S(=O)(=O)N3CCOCC3)cc2)c1
Second: Cc1ccc(S(=O)(=O)N(C)c2cc(S(=O)(=O)N3CCOCC3)c(C)cc2C)cc1
The “hERG current change (%, negative = inhibition) at 10uM” value of the first is higher: -5.21% for the first, -34.1% for the second.

Going from `Cc1ccccc1-c1nc(P(=O)(c2ccccc2)c2ccccc2)c(N2CCOCC2)o1` to `Cc1ccccc1CSCC(=O)Nc1ccccc1-c1ccccc1`, the “hERG current change (%, negative = inhibition) at 10uM” value rises from -19.5% to 4.91%.

Compared with `CCCCNC(=O)N1CCCC(C(=O)c2cc(C)c(OC)c(C)c2)C1` (stereo not drawn), `CCOC(=O)C1(Cc2ccccc2C)CCCN(C(=O)COC)C1` (stereo not drawn) is higher in “hERG current change (%, negative = inhibition) at 10uM” value: -0.274% for the first, 21.5% for the second.

Compared with `COc1cc(-c2nc(CN(C)Cc3nnc(C)o3)c(C)o2)ccc1F`, `Cc1nonc1CN(C)C(=O)c1cc(COc2ccc(F)cc2Cl)on1` is higher in “hERG current change (%, negative = inhibition) at 10uM” value: -8.17% for the first, -4.29% for the second.

Going from `O=C1COc2ccc(-c3n[nH]c(=O)c4ccccc34)cc2N1` to `Cc1ccc2c(c1)C(c1ccccc1)N(C(=O)c1ccc(F)cc1)CC(=O)N2` (stereo not drawn), the “hERG current change (%, negative = inhibition) at 10uM” value falls from -2.91% to -6.99%.

Compared with `O=c1[nH]ccc2c(O)cccc12`, `Cc1cc(/C=C2\SC(=S)N(C)C2=O)c(C)n1-c1ccccc1O` is lower in “hERG current change (%, negative = inhibition) at 10uM” value: 20.1% for the first, 1.43% for the second.

First: C=CCNCCCCOc1ccc(OCC)cc1.O=C(O)C(=O)O
Second: CCCCCCCC(=O)Oc1ccc(C(=O)Nc2cc(C)on2)cc1
The “hERG current change (%, negative = inhibition) at 10uM” value of the first is lower: -17.4% for the first, 21.5% for the second.

Going from `CC(C)CC(C(=O)O)N1C(=O)[C@@H]2[C@H](C1=O)[C@@H]1C[C@H]2C(Br)C1Br` (stereo partly drawn) to `CC(C)N1C(=O)C2ON(c3ccccc3)C(c3cccs3)C2C1=O` (stereo not drawn), the “hERG current change (%, negative = inhibition) at 10uM” value falls from -0.62% to -16.6%.

Compared with `CC(/C=N/NC(=O)c1cccnc1)=C\c1ccco1`, `O=C(CSc1nnc(-c2cccnc2)n1Cc1ccco1)c1ccccc1` is lower in “hERG current change (%, negative = inhibition) at 10uM” value: 14.6% for the first, -10.3% for the second.

Going from `CCN1CCN(Cc2ccccc2C)CC1` to `O=C(Cc1ccccc1F)N1CCN(S(=O)(=O)c2ccc(Cl)cc2)CC1`, the “hERG current change (%, negative = inhibition) at 10uM” value rises from 10.1% to 12.6%.

Compared with `Cc1cccc(C(=O)OCC(=O)NC(C)CCc2ccccc2)c1` (stereo not drawn), `N#CCC(=O)NNC(=S)NC(=O)C(c1ccccc1)c1ccccc1` is lower in “hERG current change (%, negative = inhibition) at 10uM” value: 12.8% for the first, 5.41% for the second.

First: O=C(CN1C(=O)c2ccccc2S1(=O)=O)NCCC1=CCCCC1
Second: C=CCNC(=O)c1ccc2c(c1)S(=O)(=O)c1ccccc1C2=O
The “hERG current change (%, negative = inhibition) at 10uM” value of the first is higher: -2.21% for the first, -45.8% for the second.

Compared with `Br.CC(C)Cc1ccc(C2=CSC3=NCCN23)cc1`, `Cc1ccc(COCCN2CCN(S(=O)(=O)c3ccc(C)cc3)CCC2=O)cc1` is higher in “hERG current change (%, negative = inhibition) at 10uM” value: -70.5% for the first, 6.17% for the second.

Going from `CC(C)C(=O)NC(c1ccc(N(C)C)cc1)c1c(O)ccc2ccccc12` (stereo not drawn) to `CN(C(=O)CCNC(=O)Cn1cnc2ccccc2c1=O)c1ccc(F)cc1`, the “hERG current change (%, negative = inhibition) at 10uM” value rises from 11.2% to 19.2%.

Compared with `COc1ccccc1/C(O)=C(\C#N)c1nc2ccccc2[nH]1`, `O=C(CNC(=O)c1ccccc1F)OCc1nc2ccccc2s1` is higher in “hERG current change (%, negative = inhibition) at 10uM” value: 15% for the first, 20.6% for the second.

Going from `O=C(NC1=NCCS1)c1ccc2c(c1)C(=O)N(Cc1ccco1)C2=O` to `CCC(=O)Nc1ccc(C(=O)Nc2ccc3c(c2)C(=O)N(CC2CCCO2)C3=O)cc1` (stereo not drawn), the “hERG current change (%, negative = inhibition) at 10uM” value rises from 3.1% to 8.91%.

Compared with `COc1ccc(S(=O)(=O)Nc2noc3ccccc23)cc1OC`, `COc1ccc(Nc2ncnc3sccc23)cc1OC` is lower in “hERG current change (%, negative = inhibition) at 10uM” value: 21.5% for the first, 11.6% for the second.

First: COc1cc(C)c(C(C)C)cc1S(=O)(=O)N1CCOCC1
Second: Cn1c(=O)c2c(nc(SCCN3CCOCC3)n2C)n(C)c1=O
The “hERG current change (%, negative = inhibition) at 10uM” value of the first is lower: -14.6% for the first, 16.9% for the second.

Going from `O=C(C1CCN(C2CCN(Cc3ccsc3)CC2)CC1)N1CCOCC1` to `CC(C)c1ccc(NC(=O)C2CCN(c3ncnc4c3nc3n4CCCCC3)CC2)cc1`, the “hERG current change (%, negative = inhibition) at 10uM” value rises from -3.8% to 14.4%.

Compared with `COc1ccc(NC(=O)C/C(C)=N/NC(=O)C(=O)NC(C)C)c(OC)c1`, `CC(=O)Nc1ccc(NC(=O)C/C(C)=N/NC(=O)C(=O)Nc2ccc(C)c(Cl)c2)cc1` is lower in “hERG current change (%, negative = inhibition) at 10uM” value: 16.5% for the first, 9.93% for the second.

Compared with `Cc1cc2oc(=O)c(CC(=O)NCCCO)c(C)c2c2occ(C(C)(C)C)c12`, `Cc1cc(NC(=O)CCCN2C(=O)c3cccnc3C2=O)no1` is higher in “hERG current change (%, negative = inhibition) at 10uM” value: -9.35% for the first, 2.62% for the second.

Going from `CCOC(=O)c1c(NC(=O)COC(=O)c2nc(Cl)ccc2Cl)sc2c1CCC2` to `Cc1nc2ccccc2c(=O)n1NC(=O)c1c(O)c2c(n(CC(C)C)c1=O)CCCC2`, the “hERG current change (%, negative = inhibition) at 10uM” value falls from 10.2% to -8.15%.

Compared with `CCCN(CCC)C(=O)Cn1c(=O)c2ccccc2n2c(=S)sc(-c3ccccc3C)c12`, `Cn1c(Cl)c(/C=N/OC(=O)c2cccc(Cl)c2)c2ccccc21` is lower in “hERG current change (%, negative = inhibition) at 10uM” value: 2.97% for the first, 2.86% for the second.

Compared with `CC(=O)c1ccn(S(=O)(=O)c2ccccc2)c1`, `CC(=O)c1cccc(Nc2c3c(nc4ccccc24)CCC3)c1.Cl` is lower in “hERG current change (%, negative = inhibition) at 10uM” value: -11.9% for the first, -68.8% for the second.

Compared with `COc1ccc(C(=O)C(OC(=O)CNC(=O)c2ccco2)c2ccccc2)cc1` (stereo not drawn), `COc1ccc(CNc2oc(-c3cccc4ccccc34)nc2P(=O)(OC)OC)cc1` is higher in “hERG current change (%, negative = inhibition) at 10uM” value: 2.95% for the first, 4.65% for the second.

First: Cc1nc(N2CCN(c3ccccn3)CC2)c2c(C)c(C(=O)Nc3ccc(F)c(Cl)c3)sc2n1
Second: CC(=O)N1CCCc2cc(S(=O)(=O)N3CCN(c4ccccn4)CC3)ccc21
The “hERG current change (%, negative = inhibition) at 10uM” value of the first is higher: 14.2% for the first, -4.38% for the second.

First: O=[N+]([O-])c1cc(Br)c(O)c(/C=N/Nc2nnnn2-c2cccc3ccccc23)c1
Second: O=C(CNc1ccccc1)N/N=C/c1ccc([N+](=O)[O-])cc1
The “hERG current change (%, negative = inhibition) at 10uM” value of the first is higher: 0.778% for the first, -8.81% for the second.

Compared with `Fc1ccc(C(Nc2ccccn2)c2c[nH]c3ccccc23)cc1` (stereo not drawn), `CCOc1ccccc1OCC(=O)Nc1ccc2[nH]c(=O)[nH]c2c1` is higher in “hERG current change (%, negative = inhibition) at 10uM” value: -5.21% for the first, 12.3% for the second.

Going from `O=C(c1ccco1)N1CCC(n2nnc3ccccc32)CC1` to `O=C(NCc1ccc2c(c1)OCO2)C1CCCN(S(=O)(=O)c2cccnc2)C1` (stereo not drawn), the “hERG current change (%, negative = inhibition) at 10uM” value rises from -17.1% to 7.92%.

First: Cc1ccc(NC(=S)Nc2ccc(OC(F)F)c(Cl)c2)cc1F
Second: Cc1ccc(C(C)C)c(OCC(=O)Nc2ccc3c(c2)nc(CN2CCCC2)n3C)c1
The “hERG current change (%, negative = inhibition) at 10uM” value of the first is higher: 2.28% for the first, -76.2% for the second.

Going from `CCOc1ccc(N=C2C(=O)N(CN3CCOCC3)c3ccccc32)cc1` to `CCOc1ccccc1NC(=O)CN1C(=O)C(C)SC(C)C1=O` (stereo not drawn), the “hERG current change (%, negative = inhibition) at 10uM” value rises from -5.44% to 14%.

Compared with `COc1ccc(CCN=CC2=C(O)CCCC2=O)cc1OC`, `CN(Cc1nc2c(s1)CCCC2)C(=O)CCc1nnc(-c2ccccc2)o1` is lower in “hERG current change (%, negative = inhibition) at 10uM” value: 20.7% for the first, -10.5% for the second.

First: CN(CCCNC(=O)Cn1cccc1C(=O)c1ccccc1)C1CCCCC1
Second: Cc1cccc(NC(=O)CC2Nc3cccc4cccc(c34)NC2=O)c1 (stereo not drawn)
The “hERG current change (%, negative = inhibition) at 10uM” value of the first is lower: -39.3% for the first, -9.15% for the second.

Going from `Cl.c1ccc(OCC2CCNCC2)nc1` to `CCOc1cc(C2NC(=O)CCC2[N+](=O)[O-])cc(Br)c1OCC` (stereo not drawn), the “hERG current change (%, negative = inhibition) at 10uM” value falls from 5.06% to -24.2%.

Going from `CC(=O)/C=C(\C)NCCNc1c(F)c(F)c(CO)c(F)c1F` to `COCCNC(=O)c1ccc2c(c1)nc(C)n2-c1cccc(Cl)c1`, the “hERG current change (%, negative = inhibition) at 10uM” value falls from 5.71% to 2.88%.

First: Cc1c(C(=O)Nc2ccncc2)sc2nc(-c3ccccc3)cn12
Second: Cc1c(NC(=O)C2CC=CCC2C(=O)O)c(=O)n(-c2ccccc2)n1C (stereo not drawn)
The “hERG current change (%, negative = inhibition) at 10uM” value of the first is lower: -12.5% for the first, -10.6% for the second.

Going from `CCCCCn1c(SCC(=O)OC)nc2c1c(=O)[nH]c(=O)n2C` to `CC(c1nnc(SCC(=O)NC(=O)NCc2ccco2)n1-c1ccc(Cl)cc1)N(C)C` (stereo not drawn), the “hERG current change (%, negative = inhibition) at 10uM” value rises from -60.7% to -8.66%.

Going from `CCC1CCCCN1c1cc(C)nc2cc(-c3cccc(C)c3)nn12` (stereo not drawn) to `COc1ccccc1Cc1noc(COc2cccc(C)c2C)n1`, the “hERG current change (%, negative = inhibition) at 10uM” value rises from -1.65% to 3.03%.

Compared with `O=C(Nc1nc2ccc(F)cc2s1)C1CCN(S(=O)(=O)c2cc([N+](=O)[O-])ccc2Cl)CC1`, `CC(C)Nc1cc(N2CCCC2)ccc1[N+](=O)[O-]` is lower in “hERG current change (%, negative = inhibition) at 10uM” value: 9.6% for the first, -7.55% for the second.

Compared with `Cc1nnsc1NC(=O)OCCCl`, `Cc1onc(-c2c(Cl)cccc2Cl)c1C(=O)Nn1cnnc1` is lower in “hERG current change (%, negative = inhibition) at 10uM” value: 14.2% for the first, 10.6% for the second.

Going from `CC1CC(=O)c2cnc(N)nc2C1` (stereo not drawn) to `NS(=O)(=O)c1ccc(NS(=O)(=O)c2ccc(C3CNC(=O)C3)cc2)cc1` (stereo not drawn), the “hERG current change (%, negative = inhibition) at 10uM” value rises from -3.43% to 16.2%.

Going from `C=CCC1NS(=O)(=O)OC2CCCC12` (stereo not drawn) to `CN(C)/N=C/c1ccc(/C=N/NC(N)=S)o1`, the “hERG current change (%, negative = inhibition) at 10uM” value falls from 10.6% to 5.07%.
